From the supplement of paper PMC4967469
By IC50 is meant the dose at which the fit gives 50% viability; a fit beyond the top or the lowest dose is shown as a bound at that dose. For AUC the same curve is integrated over the 256-fold range of doses and scaled to a fraction: 1 means no effect, lower means more sensitive. For part of these data: An inferred top dose was derived from the fitted curves, not read from the paper. For part of these data: An entry number marks a drug with two screens in the source, which often give different values.

Experiments:
Assay in all cases: Viability of human cancer cell lines after 72 h of drug (GDSC screen)
Docetaxel = compound: CC(=O)O[C@@]12CO[C@@H]1C[C@H](O)[C@@]1(C)C(=O)[C@H](O)C3=C(C)[C@@H](OC(=O)[C@H](O)[C@@H](NC(=O)OC(C)(C)C)c4ccccc4)C[C@@](O)([C@@H](OC(=O)c4ccccc4)[C@H]21)C3(C)C [Docetaxel]; details: top dose 0.0125 µM
Description: (§1)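 Human cancer cell lines in 384-well plates, medium with 10% serum, drug for 72 h over a 256-fold dose range (nine 2-fold or five 4-fold steps up to the top dose). Adherent lines were fixed and stained with the nucleic acid dye Syto60, suspension lines read with resazurin; signal relative to control wells, capped at 0 and 100%. One two-parameter sigmoid per drug and line, fitted in a mixed model over all curves with the slope shared within a line.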

YM155 = compound: COCC[n+]1c2c(n(Cc3cnccn3)c1C)C(=O)c1ccccc1C2=O [YM155]; details: top dose 5.12 µM
Description: as §1

JNJ-26854165 = compound: c1ccc2c(CCNc3ccc(Nc4ccncc4)cc3)c[nH]c2c1 [JNJ-26854165]; details: top dose 10 µM
Description: as §1

NVP-TAE684 = compound: COc1cc(N2CCC(N3CCN(C)CC3)CC2)ccc1Nc1ncc(Cl)c(Nc2ccccc2S(=O)(=O)C(C)C)n1 [NVP-TAE684]; details: top dose 2 µM
Description: as §1

Cyclopamine = compound: CC1=C2C[C@H]3[C@@H](CC=C4C[C@@H](O)CC[C@@]43C)[C@@H]2CC[C@]12O[C@@H]1C[C@H](C)CN[C@H]1[C@H]2C [Cyclopamine]; details: top dose 16 µM; top dose inferred
Description: as §1

SB-715992 = compound: Cc1ccc(C(=O)N(CCCN)[C@@H](c2nc3cc(Cl)ccc3c(=O)n2Cc2ccccc2)C(C)C)cc1 [SB-715992]; details: top dose 0.128 µM; top dose inferred
Description: as §1

JNK Inhibitor VIII = compound: CCOc1nc(NC(=O)Cc2cc(OC)ccc2OC)cc(N)c1C#N [JNK Inhibitor VIII]; details: top dose 10 µM; top dose inferred
Description: as §1

JQ1 = compound: Cc1sc2c(c1C)C(c1ccc(Cl)cc1)=N[C@@H](CC(=O)OC(C)(C)C)c1nnc(C)n1-2 [JQ1]
Description: as §1

AMG-706 = compound: CC1(C)CNc2cc(NC(=O)c3cccnc3NCc3ccncc3)ccc21 [AMG-706]; details: top dose 2 µM; top dose inferred
Description: as §1

FTI-277 = compound: COC(=O)[C@H](CCSC)NC(=O)c1ccc(NC[C@@H](N)CS)cc1-c1ccccc1 [FTI-277]; details: top dose 1.024 µM; top dose inferred
Description: as §1

NSC-207895 = compound: CN1CCN(c2ccc([N+](=O)[O-])c3no[n+]([O-])c23)CC1 [NSC-207895]; details: top dose 20 µM; top dose inferred
Description: as §1

Belinostat = compound: O=C(/C=C/c1cccc(S(=O)(=O)Nc2ccccc2)c1)NO [Belinostat]; details: top dose 20 µM; top dose inferred
Description: as §1

OSI-906 = compound: C[C@]1(O)C[C@@H](c2nc(-c3ccc4ccc(-c5ccccc5)nc4c3)c3c(N)nccn32)C1 [OSI-906]; details: top dose 2.56 µM; top dose inferred
Description: as §1

CGP-60474 = compound: OCCCNc1cc(-c2ccnc(Nc3cccc(Cl)c3)n2)ccn1 [CGP-60474]; details: top dose 0.256 µM; top dose inferred
Description: as §1

[1] = top dose 1 µM, screen: GDSC drug entry 1218, top dose inferred
[2] = top dose 2.56 µM, screen: GDSC drug entry 163

Cell Line	AUC (Docetaxel)	IC50 (Docetaxel)	AUC (YM155)	IC50 (YM155)	AUC (JNJ-26854165)	IC50 (JNJ-26854165)	AUC (NVP-TAE684)	IC50 (NVP-TAE684)	AUC (Cyclopamine)	IC50 (Cyclopamine)	AUC (SB-715992)	IC50 (SB-715992)	AUC (JNK Inhibitor VIII)	IC50 (JNK Inhibitor VIII)	AUC (JQ1; [1])	IC50 (JQ1; [1])	AUC (JQ1; [2])	IC50 (JQ1; [2])	AUC (AMG-706)	IC50 (AMG-706)	AUC (FTI-277)	IC50 (FTI-277)	AUC (NSC-207895)	IC50 (NSC-207895)	AUC (Belinostat)	IC50 (Belinostat)	AUC (OSI-906)	IC50 (OSI-906)	AUC (CGP-60474)	IC50 (CGP-60474)
SF539 (glioma, adherent)	0.388	0.399 nM	0.839	2990 nM	0.848	6310 nM	0.067	< 7.81 nM	0.945	> 16000 nM	0.84	75.5 nM	0.963	> 10000 nM	0.985	> 1000 nM	0.948	> 2560 nM	0.952	> 2000 nM	0.989	> 1020 nM	0.926	> 20000 nM	0.699	4240 nM	0.987	> 2560 nM	0.747	74.8 nM
VA-ES-BJ (soft tissue, adherent)	0.479	0.68 nM	0.031	< 20 nM	0.861	9290 nM	0.849	1640 nM	0.982	> 16000 nM	0.958	> 128 nM	0.967	> 10000 nM	0.911	> 1000 nM	0.706	634 nM	0.964	> 2000 nM	0.98	> 1020 nM	0.605	2470 nM	0.651	3350 nM			0.613	33.3 nM
LU-65 (large cell lung carcinoma, suspension)	0.987	> 12.5 nM	0.064	< 20 nM	0.968	> 10000 nM	0.878	> 2000 nM	0.972	> 16000 nM	0.798	73.8 nM	0.987	> 10000 nM	0.982	> 1000 nM	0.921	> 2560 nM	0.986	> 2000 nM	0.987	> 1020 nM	0.97	> 20000 nM	0.502	1260 nM			0.889	> 256 nM
KARPAS-231 (B-cell leukaemia, suspension)	0.876	7.74 nM			0.636	1350 nM	0.867	1150 nM	0.955	> 16000 nM			0.994	> 10000 nM	0.994	> 1000 nM	0.593	270 nM	0.994	> 2000 nM	0.992	> 1020 nM					0.991	> 2560 nM	0.578	24.8 nM
HSC-39 (stomach, suspension)	0.74	3.35 nM			0.817	4640 nM	0.69	390 nM	0.985	> 16000 nM	0.636	17.9 nM	0.991	> 10000 nM	0.958	> 1000 nM	0.991	> 2560 nM	0.976	> 2000 nM	0.991	> 1020 nM	0.86	13200 nM			0.991	> 2560 nM	0.784	92.9 nM
NB17 (neuroblastoma, adherent)	0.704	3.23 nM	0.338	106 nM	0.783	4880 nM	0.784	983 nM	0.98	> 16000 nM	0.978	> 128 nM	0.912	> 10000 nM			0.83	1960 nM	0.984	> 2000 nM	0.983	> 1020 nM	0.761	8100 nM	0.836	16100 nM			0.751	95.9 nM
KASUMI-1 (acute myeloid leukaemia, suspension)	0.949	> 12.5 nM			0.878	> 10000 nM	0.899	> 2000 nM	0.982	> 16000 nM	0.699	29.1 nM			0.964	> 1000 nM	0.35	61.3 nM			0.92	> 1020 nM							0.927	> 256 nM
NALM-6 (B-cell leukaemia, suspension)	0.987	> 12.5 nM	0.015	< 20 nM	0.97	> 10000 nM	0.729	492 nM	0.841	8620 nM	0.513	8.65 nM	0.986	> 10000 nM					0.988	> 2000 nM	0.991	> 1020 nM	0.77	6420 nM	0.15	136 nM	0.928	> 2560 nM	0.671	43.9 nM
C2BBe1 (large intestine, adherent)	0.657	2.27 nM	0.484	287 nM	0.925	> 10000 nM	0.79	1030 nM	0.97	> 16000 nM	0.985	> 128 nM			0.984	> 1000 nM	0.718	730 nM	0.962	> 2000 nM	0.983	> 1020 nM	0.846	17700 nM	0.455	927 nM	0.829	1900 nM	0.79	131 nM
BB65-RCC (kidney, adherent)	0.704	3.23 nM	0.04	< 20 nM	0.829	7540 nM	0.855	1980 nM	0.96	> 16000 nM	0.957	> 128 nM			0.98	> 1000 nM	0.888	> 2560 nM			0.969	> 1020 nM	0.886	> 20000 nM	0.442	845 nM	0.832	1980 nM	0.641	41.9 nM
PL-21 (acute myeloid leukaemia, suspension)	0.863	> 12.5 nM	0.271	63.3 nM	0.906	> 10000 nM	0.675	420 nM	0.979	> 16000 nM	0.657	23.7 nM			0.969	> 1000 nM	0.633	399 nM			0.97	> 1020 nM	0.931	> 20000 nM	0.523	1460 nM	0.572	260 nM	0.685	58 nM
MOLM-13 (acute myeloid leukaemia, suspension)	0.843	8.03 nM	0.021	< 20 nM	0.557	885 nM	0.569	191 nM	0.912	> 16000 nM	0.609	15.6 nM	0.978	> 10000 nM					0.925	> 2000 nM	0.981	> 1020 nM	0.783	7870 nM	0.273	296 nM	0.976	> 2560 nM	0.639	37.6 nM
CHP-126 (neuroblastoma, suspension)	0.987	> 12.5 nM	0.217	46.1 nM	0.965	> 10000 nM	0.774	804 nM	0.985	> 16000 nM			0.985	> 10000 nM	0.986	> 1000 nM	0.734	757 nM	0.942	> 2000 nM	0.982	> 1020 nM	0.94	> 20000 nM	0.69	4340 nM	0.79	1170 nM	0.764	95.6 nM
EW-16 (Ewing sarcoma, adherent)			0.038	< 20 nM	0.812	5630 nM	0.496	122 nM	0.985	> 16000 nM	0.693	28.7 nM	0.951	> 10000 nM	0.958	> 1000 nM	0.805	1370 nM	0.858	1770 nM	0.966	> 1020 nM	0.985	> 20000 nM	0.293	315 nM	0.531	195 nM	0.596	29.7 nM
LB996-RCC (kidney, adherent)			0.709	1390 nM	0.795	5520 nM	0.755	781 nM	0.964	> 16000 nM	0.983	> 128 nM	0.962	> 10000 nM	0.981	> 1000 nM	0.779	1230 nM	0.968	> 2000 nM	0.968	> 1020 nM	0.981	> 20000 nM	0.712	5540 nM	0.933	> 2560 nM	0.64	41.6 nM
OPM-2 (myeloma, suspension)	0.994	> 12.5 nM	0.066	< 20 nM	0.987	> 10000 nM	0.61	236 nM	0.972	> 16000 nM	0.592	13.6 nM	0.994	> 10000 nM					0.989	> 2000 nM	0.993	> 1020 nM	0.986	> 20000 nM	0.288	361 nM	0.889	1980 nM	0.795	95.2 nM
SK-N-FI (neuroblastoma, adherent)	0.937	> 12.5 nM	0.902	> 5120 nM			0.903	> 2000 nM	0.99	> 16000 nM	0.865	112 nM	0.968	> 10000 nM	0.976	> 1000 nM	0.923	> 2560 nM	0.959	> 2000 nM	0.989	> 1020 nM	0.97	> 20000 nM	0.448	903 nM	0.885	> 2560 nM	0.905	> 256 nM
VCaP (prostate, adherent)	0.595	1.44 nM	0.081	< 20 nM	0.728	2870 nM	0.589	221 nM	0.985	> 16000 nM	0.855	109 nM	0.987	> 10000 nM					0.984	> 2000 nM	0.982	> 1020 nM	0.872	> 20000 nM	0.171	119 nM	0.447	114 nM	0.779	109 nM
